In PubChem BioAssay AID485344 (National Center for Advancing Translational Sciences (NCATS), 2010) one finds inhibition data, which are given here for 59 molecules.

The whole screen tested about 340,000 compounds, of which about 6,900 (2%) were called active. No stated cut-off is given here; in the data, active means inhibition above about 30%; inactive means below that, where a call was filed. Only a part is listed here, and it is no random draw. Where no call is shown, the source filed none.

Sequence of UniProt P14416 (P14416 whole entry, looked up): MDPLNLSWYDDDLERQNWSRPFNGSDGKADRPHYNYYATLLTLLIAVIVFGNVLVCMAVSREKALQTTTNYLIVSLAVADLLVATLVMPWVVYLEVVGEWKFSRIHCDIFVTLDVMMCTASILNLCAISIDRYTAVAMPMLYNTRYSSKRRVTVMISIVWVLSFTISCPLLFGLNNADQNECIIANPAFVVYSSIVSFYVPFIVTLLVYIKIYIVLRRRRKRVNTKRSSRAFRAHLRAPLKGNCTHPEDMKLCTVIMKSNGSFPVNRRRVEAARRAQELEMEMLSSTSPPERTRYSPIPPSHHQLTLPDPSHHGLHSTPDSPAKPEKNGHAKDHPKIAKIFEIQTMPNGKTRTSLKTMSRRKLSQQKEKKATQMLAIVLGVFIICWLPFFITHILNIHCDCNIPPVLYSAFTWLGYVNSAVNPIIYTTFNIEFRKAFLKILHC

The experiment deals with D(2) dopamine receptor (Homo sapiens) (UniProt P14416). Nature of the experiment: HTS Assay for Allosteric Antagonists of the Human D2 Dopamine Receptor: Primary Screen for Antagonists. Further: 0% is about no effect. The conditions noted are these: HEK293 TREx D2 cells, calcium flux, dopamine EC80; at 10 µM; stronger effect = higher value. In outline:
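Calcium flux kinetic readout in an inducible HEK293 TREx D2 line plated overnight at 30 C. After 180 s compound exposure, an EC80 dopamine challenge follows with another 180 s kinetic read to detect antagonism.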
For orientation: Calcium flux is commonly read through the fluorescence of an indicator in the cells.
As usually defined, the inhibition is the change of the read-out against control, counted positive when it falls. `CCc1cc(C(=O)NC(C)c2ccccc2)no1` (centres undefined): the inhibition is -11.8%.
As for `COc1ccc(Br)c(C(=O)Nc2cc3c(cc2N2CCCCC2)n(C)c(=O)c(=O)n3C)c1`, the inhibition is -11.2%.
`COc1cc2c(cc1OC)C(COc1ccc(F)cc1)N(C(=O)c1ccc(S(=O)(=O)N3CCCC3)cc1)CC2` (centres undefined): the inhibition turned out to be 24.9%.
As to `COc1cc(C2CC(=O)N(Cc3ccc(F)cc3)c3ccccc3S2)cc(OC)c1OC` (centres undefined), the inhibition is -9.88%.
Next, `CCC(C)n1c(SCc2c(F)cccc2Cl)nc2ccsc2c1=O` (centres undefined): -11.2%; `COc1ccc(N2CCN(S(=O)(=O)c3ccc4c(c3)CCCN4C(C)=O)CC2)cc1`: -20.1%.
Next, `COc1cc2c(cc1OC)C(COc1ccc(C(C)C)cc1)N(C(=O)c1ccc(S(=O)(=O)N3CCCC3)cc1)CC2` (centres undefined): 5.42%.
Next, `CC1CCN(CCCNC(=O)c2cn(C)c3ccc(S(=O)(=O)N(C)C4CCCCC4)cc3c2=O)CC1`: 13.4%; `COc1cc(N2C(=O)CSC23C(=O)N(Cc2ccc(C)cc2)c2ccccc23)cc(OC)c1OC` (centres undefined): -2.79%; `Cc1ccc(C)c(CN2C(=O)c3ccccc3S(=O)c3ccc(C(=O)N4CCN(c5ccccc5F)CC4)cc32)c1` (centres undefined): 10.8%.
Regarding `Cn1c(=O)oc2cc(S(=O)(=O)N3CCC(C(=O)NCc4ccc(F)cc4)CC3)ccc21`, the inhibition came out at 15%.
Take `CC1CCCCN1C(=O)Cn1nnc(-c2cccnc2)n1` (centres undefined): the inhibition is active: 31.9%.
With `COc1ccc(Nc2nc3cc(Cl)c(Cl)cc3n3cnnc23)cc1Cl`, the inhibition is -13.1%.
Consider `Cc1ccc(N2C(=O)C3C4C=CC(CC4)C3C2=O)cc1Br` (centres undefined), for which the inhibition is active: 54.9%.
In the case of `CCCCN(C)CCNC(=O)c1ccc2c(c1)NC(=O)C(N1CCCCC1)S2` (centres undefined), the inhibition was active: 73.3%.
For the molecule `Cc1ccccc1OCCCn1c(-c2ccc(Cl)cc2)nc2ccccc2c1=O`, the inhibition stood at 15.5%.
For `O=C(Nc1nnc(S(=O)(=O)N2CCCC2)s1)c1ccccc1Br`, the inhibition was -3.92%.
With `Cc1ccccc1Cn1nnc2c(=O)[nH]c(C3CCCN(C(=O)c4ccc(F)cc4)C3)nc21` (centres undefined), the inhibition amounted to 4.1%.
`CCOC(=O)c1ccc(NC(=O)CSc2nnc(CNC(=O)c3ccc(OC)cc3)n2CC)cc1`: the inhibition was -9.88%.
For the molecule `COc1ccc(NC(=O)CC2C(=O)N(c3ccc(C)cc3)C(=O)N2Cc2ccc3c(c2)OCO3)cc1` (centres undefined), the inhibition is -14.1%.
In the case of `O=S(=O)(c1ccc2nc(Nc3ccc(F)cc3)ccc2c1)N1CCCC1`, the inhibition came to 3.35%.
For the molecule `Cc1cc(N2CCC(C)CC2)nc2ccc(NC(=O)CCC(=O)N3CCN(c4ccccc4F)CC3)cc12`, the inhibition came out at 0.007%.
Consider `Cc1ccc(C)c(CNC(=O)CN2C(=O)CSc3ccc(S(=O)(=O)N(C)C)cc32)c1`, for which the inhibition is -5.1%.
Next, `Cc1c(Br)c([N+](=O)[O-])nn1CC(=O)NC1CCCCCC1`: active: 41.5%; `Cc1cccc(-n2nnc(-c3nc(-c4cccs4)no3)c2N)c1`: -17.9%; `COc1ccc(S(=O)(=O)N(CCc2ccccc2)CC(=O)Nc2cc(C)cc(C)c2)cc1OC`: 3.88%.
Consider `COc1ccccc1N1CCN(S(=O)(=O)CCNC(=O)C(c2ccccc2)c2ccccc2)CC1`, for which the inhibition worked out at 2.45%.
Next, `CC(=O)c1cccc(N2C(=O)CN(S(C)(=O)=O)CC2(C)C(=O)NC2CCCC2)c1` (centres undefined): 7.8%; `CCc1ccc(NC(=O)Cn2c(=O)n(CCc3ccccc3)c(=O)c3sc4ccccc4c32)cc1`: -11.4%; `Cc1nc(-c2ccc(C)c(S(=O)(=O)N3CCC(C(=O)NCc4ccc(F)cc4)CC3)c2)no1`: 25.2%.
Consider `O=C(C[n+]1cccc(CNC(=O)c2ccc(OC(F)F)cc2)c1)Nc1cccc(C(F)(F)F)c1`, for which the inhibition was active: 44.8%.
Next, `COc1cccc(OC)c1OCCN1CCN(C(=O)c2ccco2)CC1`: active: 63.6%.
Take `CCC(C)NC(=O)c1cn(CC)c2ccc(S(=O)(=O)N3CCc4ccccc4C3)cc2c1=O` (centres undefined): the inhibition was found to be 11.8%.
Next, `Cc1ccc(CCNC(=O)c2ccc3c(c2)N(Cc2ccc(F)cc2)CCS3)cc1`: -12.2%; `CC(C)c1ccc(NC(=O)[C@H](NC(=O)[C@@H]2Cc3ccccc3CN2)c2ccccc2)cc1`: active: 32.7%.
In the case of `Cc1cc(C)c(NC(=O)Cn2c(=O)n(CC(=O)NCCc3ccccc3)c(=O)c3ccccc32)c(C)c1`, the inhibition was found to be 10.4%.
Next, `O=C(CSc1nc2ccccc2n1Cc1cccc(F)c1)N1CCN(c2ccc(F)cc2)CC1`: 9.3%.
On to `O=C(NCc1ccccc1Cl)c1ccc2c(c1)N(Cc1ccccc1)CCS2`, for which the inhibition was -0.582%.
As to `CCOC(=O)c1[nH]c(C)c(CCC(=O)Nc2cc(Cl)c(OC)cc2OC)c1C`, the inhibition is -10.8%.
On to `O=c1c2sccc2n(Cc2cc(=O)n3cc(Cl)ccc3n2)c(=O)n1-c1ccccc1`, for which the inhibition was -4.98%.
In the case of `O=C1CCSc2ccc(S(=O)(=O)Nc3cccc(C(F)(F)F)c3)cc2N1`, the inhibition was -5.54%.
For the molecule `O=c1c(N2CCN(c3cccc(Cl)c3)CC2)csc2ccc(Cl)cc12`, the inhibition was determined as 3.82%.
Regarding `Nc1nc(CN2CCN(c3ccccc3F)CC2)nc(Nc2ccc3c(c2)OCCO3)n1`, the inhibition was active: 54%.
Take `COc1ccc(-c2cn3nc(SCC(=O)Nc4cc(C)cc(C)c4)ccc3n2)cc1`: the inhibition is -13.7%.
For the molecule `Cc1ccc(S(=O)(=O)N2CCOCC2)cc1NC(=O)CNCC1CCCCC1`, the inhibition was active: 49.8%.
Turning to `CCc1cccc(C)c1NC(=O)Cn1ncc2c3ccccc3n(Cc3ccccc3)c2c1=O`, the inhibition came out at 18%.
With `Cc1ccc(Cl)cc1Nc1nn2c(=O)c3ccc(C(=O)NC4CCCCC4)cc3nc2s1`, the inhibition stood at 5.85%.
Consider `CCOc1ccc2c(c1)c(=O)c(S(=O)(=O)c1ccc(CC)cc1)cn2Cc1cccc(Cl)c1`, for which the inhibition was -11.9%.
As for `COc1ccc(OC)c(NC(=O)CS(=O)(=O)Cc2nc(-c3ccc(C)cc3)oc2C)c1`, the inhibition stood at 2.54%.
As for `CCCSc1ncnc2c1c(-c1ccccc1)cn2-c1ccccc1OC`, the inhibition was -0.841%.
As for `COc1ccc(CNC(=O)c2ccc(CS(=O)(=O)c3ccc(Br)cc3)o2)cc1`, the inhibition was 22.7%.
As to `CCCCOC(=O)c1ccc(Nc2nc3ccc(C(=O)c4ccccc4)cc3n3cnnc23)cc1`, the inhibition turned out to be 10.5%.
Next, `CCOc1ccc(OCC)c(NC(=O)c2cc(-c3cccs3)nc3ccccc23)c1`: -14.4%.
Next, `O=C(c1cc2cc3ccc(Cl)cc3nc2o1)N1CCN(c2cccc(Cl)c2)CC1`: 11.3%; `O=c1c2nncn2ccn1-c1ccc(F)c(F)c1`: 11.2%.
In the case of `CCC(C)(C)n1nnnc1C(c1ccccn1)N1CCCCC1` (centres undefined), the inhibition was active: 51.8%.
Next, `O=C(CN1C(=O)CSc2ccc(S(=O)(=O)N3CCCC3)cc21)NCc1ccc(F)cc1Cl`: -19.6%.
`Cc1cccc(NC(=O)N2CC=C(c3c[nH]c4ccccc34)CC2)c1C`: the inhibition is -28.3%.
As for `CCN(CC)C(=O)C1CCCN(c2ncnc3c2c(-c2ccccc2)cn3-c2cccc(C)c2)C1` (centres undefined), the inhibition is -8.83%.
